Assay results reported in PubChem BioAssay AID894 (National Center for Advancing Translational Sciences (NCATS), 2007).
Several values for one entry are separate records, joined by “and”; a condition that tells them apart may be missing. Equal entries are not always repeated. Among all 150,000 compounds or so, about 6,500 (4.3%) were called active. This list was built around the results that the source calls inconclusive (neither active nor inactive); the mix of calls is not that of the screen. Calls come from the whole dose curve; as a rule, active = well fitted inhibition curve with a large enough effect (not every such curve was filed as active); inconclusive = small, poorly fitted or top-dose-only effect, or another doubt; inactive = no such curve, though single readings can be large or run the other way. Potencies beside an inconclusive call are fits to weak or partial responses and may not hold up.

target: 15-hydroxyprostaglandin dehydrogenase [NAD(+)] (Homo sapiens) (UniProt P15428); experiment: qHTS Assay for Inhibitors of HPGD (15-Hydroxyprostaglandin Dehydrogenase); conditions: purified HPGD, NADH fluorescence kinetic, PGE2 substrate; activity change, negative = inhibition: hits give low values
UniProt P15428, sequence (P15428 whole entry, looked up): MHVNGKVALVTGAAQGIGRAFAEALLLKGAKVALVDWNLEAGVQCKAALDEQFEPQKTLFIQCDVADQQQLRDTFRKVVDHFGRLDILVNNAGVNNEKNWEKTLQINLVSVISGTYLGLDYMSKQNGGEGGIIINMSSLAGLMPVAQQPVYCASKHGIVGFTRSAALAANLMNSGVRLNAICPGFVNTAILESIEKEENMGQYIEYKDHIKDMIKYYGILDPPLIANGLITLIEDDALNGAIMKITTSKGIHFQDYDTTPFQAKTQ
Method in brief: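 20 nM HPGD preincubated 15 min at room temperature with compound in 50 mM Tris-HCl pH 8, 0.01% Tween 20. Started with 1 mM NAD+ and 30 uM prostaglandin E2; NADH fluorescence (360/450 nm) read 5 times over 30-s intervals, last minus first.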
% is set by controls: 0 for no effect and ±100 for the full control effect; potency is the fitted concentration of half-maximal effect; tags give direction and shape of the fitted curve.

Potency, active:
O=c1oc2c3c4c(cc2s1)CCCN4CCC3 22.4 µM
COc1ccc(/C=C2\CCn3c2nc2cc(C(=O)O)ccc2c3=O)cc1O 14.1 µM
O=[N+]([O-])c1ccc(S(=O)(=O)Cc2ccccc2)c2nonc12 3.16 µM
COc1ccc(-c2cc(C(=O)N3CCCCC3)no2)cc1OC 14.1 µM
CC(Oc1ccccc1Cl)C(=O)/C=C/N(C)C (stereo not given) 14.1 µM
C=CCn1c(Cc2cccc3ccccc23)n[nH]c1=S 28.2 µM
O=c1[nH]n2c(=O)c3c([nH]c2c1N=Nc1cccc(Cl)c1)CCC3 7.08 µM
N#CC(Cc1ccc(O)c(O)c1)C(=O)N1CCc2ccccc21 (stereo not given) 28.2 µM
CC1=Nn2c(nnc2-c2ccco2)SC1 31.6 µM

Potency, inconclusive:
CCCn1c(-c2ccc(F)cc2)nc2c(NCCCCN(C)C)nc(C)nc21 14.1 µM [inhibitor, partial curve]
CCOC(=O)c1nn(-c2ccccc2C)c2nc(-c3ccc(C)cc3)c(C#N)c(=O)n12 31.6 µM [inhibitor, partial curve]
CCOc1ccc(C(=O)NCc2ccccc2OC)cc1 31.6 µM [inhibitor, partial curve]
COc1ccc(CC(=O)N2CCN(c3ccccn3)CC2)cc1 31.6 µM [inhibitor, single point]
O=C1OCCN1C(=O)[C@H]1[C@H](c2ccc(F)cc2)C(c2cccc(Cl)c2)=NN1c1ccccc1 31.6 µM [inhibitor, partial curve]
CCCCOc1ccc(-c2nnc(-c3ccco3)o2)cc1 31.6 µM [inhibitor, partial curve]
CCOc1ccc2[nH]c(=O)c(C(c3nnnn3CC3CCCO3)N3CCc4ccccc4C3)cc2c1 (stereo not given) 25.1 µM [inhibitor, partial curve]
CCOP(=O)(OCC)c1nc(/C=C/c2ccccc2)oc1NCc1ccccc1 3.16 µM [inhibitor, full curve]
CC(C)Sc1nc(SCC(=O)NCc2ccco2)c2c3c(sc2n1)COC(C)(C)C3 39.8 µM [inhibitor, partial curve]
CCOc1cccc2cc(-c3nnc(NCc4ccc5c(c4)OCO5)s3)c(=O)oc12 35.5 µM [inhibitor, single point]
Cc1c(CCC(=O)O)c(=O)n2c([nH]c3ccccc32)c1C#N 25.1 µM [inhibitor, partial curve]
O=C1OCCN1C(=O)[C@H]1[C@H](c2ccc(Cl)cc2)C(c2ccccc2)=NN1c1ccccc1 35.5 µM [inhibitor, partial curve]
Nn1c(-c2cccs2)nc2sc3c(c2c1=O)CCCC3 28.2 µM [inhibitor, partial curve]
Cc1ccc(C)c(-n2nnnc2SCC(=O)NCCC2=CCCCC2)c1 31.6 µM [inhibitor, partial curve]
Cc1ccc(-c2nc3cc(NC(=O)C(C)C)ccc3o2)cc1C 25.1 µM [inhibitor, partial curve]
COc1cc2nc(N(C)CCCNC(=O)C3CCCO3)nc(N)c2cc1OC (stereo not given) 31.6 µM [inhibitor, partial curve]
CSc1oc(-c2ccco2)nc1S(=O)(=O)c1ccc(F)cc1 22.4 µM [inhibitor, partial curve, poor fit]
CCOC(=O)C1=C(CSc2nc(C)cc(C)c2C#N)OC(N)=C(C#N)C1c1ccccc1 (stereo not given) 31.6 µM [inhibitor, partial curve]
O=[N+]([O-])c1ccc(N2CCOCC2)nc1 14.1 µM [inhibitor, partial curve]
Cc1ccc(C)c2[nH]c(=O)c(CCNS(=O)(=O)c3ccccc3)cc12 35.5 µM [inhibitor, partial curve]
COc1cc(/C=N\Nc2nc3ccccc3[nH]2)cc(OC)c1OC 15.8 µM [inhibitor, partial curve]
O=C(NCc1ccc(Cl)cc1)c1cnccn1 39.8 µM [inhibitor, partial curve, poor fit]
CCOC(=O)C1CCN(c2ncnc3c2oc2ccc(Br)cc23)CC1 28.2 µM [inhibitor, partial curve, poor fit]
Cc1cc2oc(=O)cc(CN3CCN(S(=O)(=O)c4cccs4)CC3)c2cc1C 15.8 µM [inhibitor, partial curve]
CC1(C)Cc2c(ccc3ccccc23)/C(=C/C(=O)N2CCCCC2)N1 20 µM [inhibitor, single point]
C=CCN(c1ccccc1)S(=O)(=O)c1cccc(C(=O)Oc2ccc3c(C)cc(=O)oc3c2)c1 31.6 µM [inhibitor, partial curve]
O=C(Nc1ccccc1N1CCCCC1)c1ccc(-c2cccc(Cl)c2)o1 12.6 µM [inhibitor, partial curve]
COc1ccccc1Oc1coc2cc(O)ccc2c1=O 25.1 µM [inhibitor, partial curve] and 31.6 µM [inhibitor, single point]
CS(=O)(=O)N1CCN(c2ccccc2NC(=O)c2cccc3ccccc23)CC1 39.8 µM [inhibitor, single point]
CC[C@H]1C(c2ccccc2)=NN(c2ccccc2)[C@@H]1CO 35.5 µM [inhibitor, partial curve]
CCCN(CCC)CCCNC(=O)c1cn(CCOC)c(=O)c2c1c1ccccc1n2C 28.2 µM [inhibitor, partial curve]
COc1ccc(-c2ccnc(SCC(=O)c3ccc(Br)cc3)n2)cc1 22.4 µM [inhibitor, partial curve]
COc1ccc(NC(=O)CSc2nc(-c3ccncc3)nn2CC(=O)N2CCCC2)cc1 22.4 µM [inhibitor, partial curve]
CC(C)(C)S(=O)(=O)c1ccc2nc3c(n2c1)CCCC3 35.5 µM [inhibitor, single point]
CCCC(=O)Nc1nnc(-c2ccco2)s1 31.6 µM [inhibitor, single point]
CCN(CC)Cc1c(-c2ccccc2)[nH]c2ccc(C)cc2c1=O 22.4 µM [inhibitor, partial curve]
N#Cc1c(-c2ccccc2)cc(-c2ccco2)c(C#N)c1N 7.94 µM [inhibitor, partial curve]
O=C1c2ccccc2NC(c2cccc(Cl)c2)N1N=C1CCCCCC1 (stereo not given) 3.55 µM [inhibitor, full curve]

Activity change, negative = inhibition, inactive:
CCc1ccccc1NS(=O)(=O)c1cc(C)ccc1OC -1.47%
CC1Cc2ccccc2N1CC(=O)NC(=O)NCc1ccco1 (stereo not given) -12.4%
COc1ccc(-c2nnc(SCC(=O)Nc3ncc(C)s3)n2-c2ccccc2)cc1OC -9.62%
N#CC1=C(SCc2ccc(C#N)cc2)N=C(N)C(c2nc(-c3ccccc3)cs2)C12CCCCC2 (stereo not given) -15.3%
Cc1cc(C)c(S(=O)(=O)Nc2ccc(OCC(=O)O)cc2)c(C)c1 -8.93%
CC(=O)O[C@]1(C(C)=O)CC[C@@H]2[C@@H]3C=C(Cl)C4=CC(=O)[C@H]5C[C@@H]5[C@]4(C)[C@H]3CC[C@]21C 0.262%
N#CC1=C(SCC(=O)NCc2ccccc2)NC(=O)CC1c1ccco1 (stereo not given) -9.81%
CCc1c(C(=O)N/N=C/c2cn[nH]c2-c2ccc(F)cc2)csc1C -10.5%
CC(C)CNC(=O)[C@H](Cc1ccccc1)NC(=O)c1ccco1 -6.61%
COc1cccc(-n2c(Cn3nc(C(F)(F)F)cc3C)n[nH]c2=S)c1 -16%
CCN(CC)S(=O)(=O)c1cccc(C(=O)NC(C(=O)Nc2nnc(C)s2)C(C)C)c1 (stereo not given) -6.61%
COc1ccc(Cl)cc1NC(=O)CSc1nnc(CN2CCOCC2)n1-c1ccc(Cl)cc1 -0.828%
Cc1cc(/C=C2/C(=N)N3C(c4ccccc4)=CSC3=NC2=O)c(C)n1-c1ccccc1 -26.5%
Oc1ccc(C=NCC2COc3ccccc3O2)cc1 (stereo not given) -9.09%
CCOC(=O)c1sc2nc3c(SCCC#N)cc(C(=O)c4cc(F)ccc4O)cn3c(=O)c2c1C -11.5%
O=C(COc1ccc(Cl)cc1)NCc1nnc2c3ccccc3c(-c3ccccc3)nn12 -17.6%
Cc1cc(C)cc(N=Cc2ccc([N+](=O)[O-])s2)c1 -9.51%
O=C1CC(c2ccccc2)CC(O)=C1C=NCCN1CCN(C(=O)Nc2ccccc2)CC1 (stereo not given) -7.59%
O=c1c(-c2cccc3ccccc23)[n+]([O-])c2ccccc2n1O -11.4%
CC(C)OCC1CO1 (stereo not given) -5.5%
O=C(COc1ccccc1)NC(=S)N1CCc2ccccc21 -23%
CC(OC(=O)Cc1ccc(Cl)cc1)C(=O)NCCC1=CCCCC1 (stereo not given) -14.2%
CCOc1cc(NC(=O)C2CCCCC2)c(OCC)cc1NC(=O)c1ccco1 -15.7%
